In paper PMC4336329 (PLoS ONE, 2015):
The whole screen tested about 310,000 compounds, of which about 14,000 (4.5%) showed an effect of 50% or more. The effect is printed as a negative number. This is one part of the list.

What follows are compounds tested against human ether-à-go-go-related gene (hERG) potassium channel (human, UniProt Q12809) (assay: primary screen, population patch clamp on CHO cells stably expressing hERG).
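Further: peak tail current of the secondary pulse compared with the same well before compound.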

Chain of human ether-à-go-go-related gene (hERG) potassium channel (Q12809 whole entry, looked up): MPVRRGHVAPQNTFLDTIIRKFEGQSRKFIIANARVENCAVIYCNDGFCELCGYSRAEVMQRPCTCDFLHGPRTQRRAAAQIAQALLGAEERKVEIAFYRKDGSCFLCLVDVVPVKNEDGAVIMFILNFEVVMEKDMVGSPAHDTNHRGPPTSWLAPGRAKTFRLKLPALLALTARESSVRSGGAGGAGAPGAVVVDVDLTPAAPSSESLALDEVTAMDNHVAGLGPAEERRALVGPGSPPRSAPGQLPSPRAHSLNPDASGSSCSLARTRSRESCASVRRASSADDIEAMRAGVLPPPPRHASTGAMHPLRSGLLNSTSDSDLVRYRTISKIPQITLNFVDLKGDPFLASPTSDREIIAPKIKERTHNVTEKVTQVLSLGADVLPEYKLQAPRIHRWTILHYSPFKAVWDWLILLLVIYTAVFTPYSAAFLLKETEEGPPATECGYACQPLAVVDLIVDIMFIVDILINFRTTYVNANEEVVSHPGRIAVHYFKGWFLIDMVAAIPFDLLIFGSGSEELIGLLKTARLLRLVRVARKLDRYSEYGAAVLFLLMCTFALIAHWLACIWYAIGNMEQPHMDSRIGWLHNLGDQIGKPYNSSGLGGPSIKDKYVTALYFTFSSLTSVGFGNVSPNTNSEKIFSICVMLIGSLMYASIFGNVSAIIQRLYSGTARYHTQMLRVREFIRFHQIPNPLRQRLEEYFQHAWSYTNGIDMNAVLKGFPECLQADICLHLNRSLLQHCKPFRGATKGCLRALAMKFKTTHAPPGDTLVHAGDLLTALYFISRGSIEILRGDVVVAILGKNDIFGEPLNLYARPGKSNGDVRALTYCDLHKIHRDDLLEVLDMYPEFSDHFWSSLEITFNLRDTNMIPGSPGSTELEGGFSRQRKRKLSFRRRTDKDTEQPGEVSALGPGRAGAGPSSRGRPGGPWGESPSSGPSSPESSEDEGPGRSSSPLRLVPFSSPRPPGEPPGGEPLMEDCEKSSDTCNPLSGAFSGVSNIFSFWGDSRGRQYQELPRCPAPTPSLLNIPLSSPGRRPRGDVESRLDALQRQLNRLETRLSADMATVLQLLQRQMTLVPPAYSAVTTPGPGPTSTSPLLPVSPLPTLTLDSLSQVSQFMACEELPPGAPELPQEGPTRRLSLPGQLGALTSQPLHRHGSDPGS

| SMILES | hERG current change (%, negative = inhibition) at 10uM [%] |
| --- | --- |
| COc1cccc(Cn2c(OCC3CCCO3)nc3c2c(=O)n(C)c(=O)n3C)c1 (stereo not drawn) | -14.2 |
| CN(C)CCCNc1cc(-c2ccccc2)nc2cc(-c3cccc(F)c3)nn12 | -15.9 |
| Cc1ccccc1CNC(=O)c1ccc2nc(N3CCOCC3)sc2c1 | -8.47 |
| c1ccc(-c2nc(NCc3ccco3)c3ccccc3n2)nc1 | -62.9 |
| CCOC(=O)C(C(C)C)C(N)Cc1ccc(F)cc1 (stereo not drawn) | -2.7 |
| COc1ccc(CNC(=O)C23CN(Cc4ccccc4)CC2C(c2ccc([N+](=O)[O-])cc2)=NO3)cc1 (stereo not drawn) | -40.5 |
| Cl.O=C(NCC(c1ccc(F)cc1)N1CCOCC1)c1ccc(Br)o1 (stereo not drawn) | 3.56 |
| Cc1csc(=N)n1-c1ccc(Cl)cc1 | -3.86 |
| CN(CC(=O)Nc1ccc(F)cc1)C(=O)COC(=O)c1ccc(-c2ccccc2)cc1 | 7.52 |
| Nc1nc(Nc2cccc(F)c2)nc(NCCO)c1[N+](=O)[O-] | -1.51 |
| CCC(OC(=O)c1ccco1)C(=O)NCc1ccco1 (stereo not drawn) | 9.6 |
| O=C(CCSc1ccc(Cl)cc1)c1cccs1 | -2.57 |
| O=C(Nc1ccc(S(=O)(=O)N2CCc3ccccc3C2)cc1)C1CCCO1 (stereo not drawn) | -3.22 |
| COC(=O)c1cccc(N(CC(=O)NCC2CCCO2)C(=O)CCC(=O)Nc2cc(C)on2)c1 (stereo not drawn) | 23.6 |
| CCn1c(SCC(O)c2ccccc2)nnc1-c1ccccc1 (stereo not drawn) | -15.2 |
| N#Cc1cc(C(=O)c2ccccc2O)cn(-c2nccs2)c1=O | 35.8 |
| CCn1c(C)nc2cc(C(=O)NNC(=S)Nc3ccc(F)cc3)ccc21 | 15.9 |
| COc1ccc(/C=N/NC(=O)CN2CCCCCCC2)c(C)c1C | -43.3 |
| Cn1cc(C(=O)OCC(=O)NC2CCCCC2)c2ccccc21 | 13.2 |
| CN(c1ccccc1)S(=O)(=O)c1cccc(C(=O)NCc2ccccc2)c1 | -18.3 |
| CN=C(NC(=O)Nc1c(C)cccc1C)NC(=O)Nc1c(C)cccc1C | 3.97 |
| C/C(=N/NC(=O)CN1CCN(S(=O)(=O)c2ccc(Br)cc2)CC1)c1ccncc1 | -80.3 |
| O=C(NC1CCCC1)C(c1ccccn1)N(C(=O)c1csnn1)c1ccccc1F (stereo not drawn) | -0.0171 |
| CCOC(=O)/C(=N\Nc1ccc(Cl)cc1)Sc1nnc(-c2ccc(OC)cc2)n1C | -31.1 |
